Measurements from the supplement of paper PMC8047034.
Counter-ions that a name gives are not always drawn. The list shows a part of the results. Single values are uncertain, as repeats are few or missing.

What follows are molecules tested on Ov4Carbo (assay: log2 surviving fraction (library drug vs vehicle, or drug + carboplatin vs carboplatin alone; relative to plate median); ovarian cancer lines: OVCAR4 is platinum-sensitive and Ov4Carbo platinum-resistant; higher = more cell survival). Settings: library drug concentration 10 µM; 7 days; carboplatin co-treatment 0 µM.
With `CCOC(=O)C(C)(C)Oc1ccc(Cl)cc1` [Clofibrate (Atromid-S)] the log2 surviving fraction was -0.55. `C[C@@H]1CCN(C(=O)CC#N)C[C@@H]1N(C)c1ncnc2[nH]ccc12` gave a log2 surviving fraction of 0.0902. In the case of `CCC[C@@H]1C[C@@H](C(=O)N[C@@H]([C@H]2O[C@H](SC)[C@H](O)[C@@H](O)[C@H]2O)[C@H](C)Cl)N(C)C1` [Clindamycin hydrochloride (Dalacin)], the log2 surviving fraction is reported as 0.458. `CO[C@H]1C(=O)[C@]2(C)[C@@H](OC)C[C@H]3OC[C@@]3(OC(C)=O)[C@H]2[C@H](OC(=O)c2ccccc2)[C@]2(O)C[C@H](OC(=O)[C@H](O)[C@@H](NC(=O)OC(C)(C)C)c3ccccc3)C(C)=C1C2(C)C` [Cabazitaxel (Jevtana)] showed a log2 surviving fraction of -5.93. `CN(CCOc1ccc(NS(C)(=O)=O)cc1)CCc1ccc(NS(C)(=O)=O)cc1` [Dofetilide (Tikosyn)] was tested, and the log2 surviving fraction was 0.431. `CC(C)[C@H]1CC[C@H](C(=O)N[C@H](Cc2ccccc2)C(=O)O)CC1` [Nateglinide (Starlix)] was tested, and the log2 surviving fraction was 0.244. `Nc1c(CC(=O)O)cccc1C(=O)c1ccccc1` [Amfenac Sodium (monohydrate)] gave a log2 surviving fraction of 0.152. Molecule `c1ccc2nc(N3CCNCC3)ccc2c1` [Quipazine Maleate] has a log2 surviving fraction of 0.0734. `OC(c1ccccc1)(c1ccccc1)C1CCNCC1` [Azacyclonol] gave a log2 surviving fraction of -1.58. Molecule `C#C[C@]1(O)CC[C@H]2[C@@H]3CCC4=CC(=O)CC[C@@H]4[C@H]3CC[C@@]21C` [norethindrone] has a log2 surviving fraction of 0.222. Work on `CC[C@H]1OC(=O)[C@H](C)[C@@H](O[C@H]2C[C@@](C)(OC)[C@@H](O)[C@H](C)O2)[C@H](C)[C@@H](O[C@@H]2O[C@H](C)C[C@H](N(C)C)[C@H]2O)[C@](C)(OC)C[C@@H](C)C(=O)[C@H](C)[C@@H](O)[C@]1(C)O` [Clarithromycin (Biaxin, Klacid)] yielded a log2 surviving fraction of 0.333.
